{
  "source": "the supplement of paper PMC7826260",
  "note": "The other results are listed elsewhere or left out. Viral Rep nickase domains cut single-stranded DNA in vitro (1 h at 37 °C, 3 µM enzyme); the outer parts of the 90-letter strands are left off. Uncut reads are compared with the no-enzyme pool on a log2 scale; uncut sequences lie near 0, cut ones below; no hit call is given. Because reads are shares of a total, they shift together; values above 0 arise when much of the pool is cut.",
  "data": [
    {"system": "T1, Rep nickase domain of chickpea chlorotic dwarf virus", "T1 sequence (protein, residues 1-124, tag omitted)": "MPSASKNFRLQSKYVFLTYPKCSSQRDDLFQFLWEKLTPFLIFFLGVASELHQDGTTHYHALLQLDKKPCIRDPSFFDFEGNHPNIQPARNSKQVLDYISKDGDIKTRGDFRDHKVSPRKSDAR", "test": "uncleaved DNA left, log2 of reads against the no-enzyme library (log2 ratio); higher = less cleavage (more negative = more Rep cleavage of the k-mer); sequences stand for … in CTCGTCCG…ACCGGAGA", "procedure": "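A pool of 90-nt single-stranded DNAs with seven random bases just before the constant AC of the nick site (name = the seven bases) was cut by 3 µM recombinant His6-SUMO-tagged Rep nickase domain (300 nM DNA, 50 mM HEPES pH 8.0, 50 mM NaCl, 1 mM MnCl2, 1 h, 37 °C, three replicates). Uncut DNA was amplified and sequenced.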", "values": [
      {"sequence": "GGAATAG", "uncleaved DNA left (log2)": 0.71},
      {"sequence": "TCATGAG", "uncleaved DNA left (log2)": -0.0222},
      {"sequence": "ACACACC", "uncleaved DNA left (log2)": -0.467},
      {"sequence": "GTAACAC", "uncleaved DNA left (log2)": 0.725},
      {"sequence": "TAAGACT", "uncleaved DNA left (log2)": -2.26},
      {"sequence": "CCGGCCT", "uncleaved DNA left (log2)": -0.674},
      {"sequence": "TGCGTAA", "uncleaved DNA left (log2)": -0.578},
      {"sequence": "GAAAGGG", "uncleaved DNA left (log2)": 0.386},
      {"sequence": "TCGTCCA", "uncleaved DNA left (log2)": -0.812},
      {"sequence": "ATGTCAC", "uncleaved DNA left (log2)": -0.235},
      {"sequence": "AACTCCG", "uncleaved DNA left (log2)": -0.219},
      {"sequence": "GGTGATT", "uncleaved DNA left (log2)": 1.64},
      {"sequence": "ACGATCA", "uncleaved DNA left (log2)": -0.792},
      {"sequence": "GGTGCGT", "uncleaved DNA left (log2)": 0.577},
      {"sequence": "TAGCCGT", "uncleaved DNA left (log2)": -1.27},
      {"sequence": "CTATAAC", "uncleaved DNA left (log2)": -1.99},
      {"sequence": "CCGCTTT", "uncleaved DNA left (log2)": -1.42},
      {"sequence": "ATGAGAT", "uncleaved DNA left (log2)": 1.68},
      {"sequence": "AGACTAA", "uncleaved DNA left (log2)": 1.14},
      {"sequence": "AAATCAC", "uncleaved DNA left (log2)": -1.55},
      {"sequence": "ATACGAT", "uncleaved DNA left (log2)": 0.399},
      {"sequence": "TTACATC", "uncleaved DNA left (log2)": -1.53},
      {"sequence": "GGAGCAA", "uncleaved DNA left (log2)": 1.88},
      {"sequence": "GCCGATG", "uncleaved DNA left (log2)": 0.534},
      {"sequence": "GTTGTGC", "uncleaved DNA left (log2)": 0.0161},
      {"sequence": "GTTTTCA", "uncleaved DNA left (log2)": 1.01},
      {"sequence": "CCCCTCG", "uncleaved DNA left (log2)": -0.0909},
      {"sequence": "CCATTCT", "uncleaved DNA left (log2)": -1.97},
      {"sequence": "CATTTCC", "uncleaved DNA left (log2)": -0.569},
      {"sequence": "GTTCACA", "uncleaved DNA left (log2)": 0.898},
      {"sequence": "CTGGCAT", "uncleaved DNA left (log2)": 1.16},
      {"sequence": "AATAAGG", "uncleaved DNA left (log2)": 1.12},
      {"sequence": "GACACGT", "uncleaved DNA left (log2)": -0.232},
      {"sequence": "ATCCCGA", "uncleaved DNA left (log2)": -0.431},
      {"sequence": "ATATAGT", "uncleaved DNA left (log2)": -2.33},
      {"sequence": "TGGCTCG", "uncleaved DNA left (log2)": -0.621},
      {"sequence": "ATCGAAC", "uncleaved DNA left (log2)": -0.186},
      {"sequence": "CACGTTT", "uncleaved DNA left (log2)": -2.69},
      {"sequence": "TCGGGGT", "uncleaved DNA left (log2)": 1.16}
    ]}
  ]
}
